# Source: PubChem BioAssay AID651820 (National Center for Advancing Translational Sciences (NCATS), 2012)
# The whole screen tested about 340,000 compounds, of which about 12,000 (3.5%) were called active. Inconclusive results, whose numbers are uncertain, are shown with a selection of clear calls. The call rests on the fitted dose curve; in most records, active means well fitted inhibition curve with a large enough effect; inconclusive means small, poorly fitted or top-dose-only effect, or another doubt; inactive means no such curve, though single readings can be large or run the other way. No potency is given beside an inconclusive call; the fits are too rough.
# Assay: qHTS Assay for Inhibitors of Hepatitis C Virus (HCV)
# Settings: Huh7.5.1 HCVcc-Cre (HCVcc is cell-culture hepatitis C virus) infection, luciferase reporter, 44 h; activity change, negative = inhibition: at 41.8 µM (top of the series)
# How it was run: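 A cell-based infection assay in which seeded cells (1,000 per well) receive test compound after 4 h, are inoculated with HCVcc-Cre at approximately 0.5 moi, and are incubated 44 h before luminescence detection.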
# On the % scale 0 is the no-effect control and ±100 the full control effect; potency means the concentration at half of the fitted maximal effect; tags describe the fitted curve by direction and shape.
SMILES,"activity change, negative = inhibition",Potency
CCCCN(CC)CCCNC(=O)c1ccc2c(c1)N(CC)C(=O)c1ccccc1S2(=O)=O,inactive: 9.35%,
CC(C(=O)Nc1cccc(Br)c1)c1ccc([N+](=O)[O-])cc1 (stereo not drawn),,"inconclusive [inhibitor, single point]"
COCCn1c(=NC(=O)CSCC(=O)N2CCOCC2)sc2cc(C)ccc21,inactive: -1.92%,
COc1ccc(-c2nn(C)c(=O)c3ccccc23)cc1CNC(=O)C1CCCCC1,,"inconclusive [inhibitor, single point]"
Nc1cc2c(cc1N)-c1ccccc1C2,,"inconclusive [inhibitor, single point]"
CCC(=O)Nc1ccc(C(=O)CSc2nnc(CNc3ccc(Cl)cc3)o2)cc1OC,,active: 5.01 µM
COc1ccc(C(=O)NC(=S)Nc2ccc(Cl)cn2)cc1OC,,"inconclusive [inhibitor, full curve]"
Cc1ccc(C(=O)NCC(=O)OCc2nnc(-c3ccc([N+](=O)[O-])cc3)o2)s1,inactive: 9.6%,
Cc1nn(CC(O)CN2c3ccccc3Sc3ccccc32)c(C)c1Br (stereo not drawn),,"inconclusive [inhibitor, single point]"
O=C(Nc1ccccc1)c1cccc(S(=O)(=O)NCc2ccco2)c1,,"inconclusive [inhibitor, single point]"
C/C(=N\NC(=O)c1cccc(S(=O)(=O)N2CCOCC2)c1)c1ccc(OC(F)F)cc1,,"inconclusive [inhibitor, full curve]"
CC1CCCN1c1ccnc2cc(Cl)ccc12 (stereo not drawn),,"inconclusive [inhibitor, single point]"
Cc1cc(C(=O)Nc2cccc(S(=O)(=O)N3CCOCC3)c2)c2ccccc2n1,,"inconclusive [inhibitor, partial curve]"
COc1ccc(/C(N)=N/OC(=O)Cc2cccs2)cc1OC,,"inconclusive [inhibitor, single point]"
Cc1cc(-n2c(C)cc(C(=O)CSc3nnnn3-c3ccc(Cl)cc3)c2C)no1,,"inconclusive [inhibitor, partial curve]"
COc1cccc(C2=NO[C@@H]3C(=O)N(Cc4ccccc4)C(=O)[C@H]23)c1OC,inactive: 10.1%,
COc1ccc(C(=O)CSC#N)cc1OC,inactive: -16.3%,
CCNC(=S)Nc1ccc(Cl)c([N+](=O)[O-])c1,,"inconclusive [inhibitor, single point]"
CCC(=O)N1CCN(c2ccc(NC(=O)COc3ccccc3Cl)cc2)CC1,,active: 11.2 µM
Cc1cc(C)c(NC(=O)CN2C(=O)NC(CCc3ccccc3)C2=O)c(C)c1 (stereo not drawn),,"inconclusive [inhibitor, single point]"
CN1CCN(C(=O)c2ccc(S(=O)(=O)c3ccc(Br)cc3)cc2)CC1,,"inconclusive [inhibitor, partial curve, poor fit]"
COc1ccc(NC(C)=O)cc1NC(C)C(=O)Nc1ccc(S(=O)(=O)N2CCCCC2)cc1 (stereo not drawn),inactive: 0%,
Cc1cccc(NCCC(=O)c2ccc([N+](=O)[O-])cc2)c1C,inactive: -6.52%,
CC(c1ccccn1)N(CCN(C)C)C(=S)Nc1ccccc1F (stereo not drawn),,"inconclusive [inhibitor, single point]"
COC(=O)c1c(C)oc(C)c1S(=O)(=O)NC(c1ccccc1)c1ccccc1,,"inconclusive [inhibitor, single point]"

SMILES,"activity change, negative = inhibition",Potency
Cc1ccc(OCC(=O)Nc2ccc(-n3cnnn3)cc2)c(C)c1,,"inconclusive [inhibitor, single point]"
Cc1cc(C)c(S(=O)(=O)Nc2ccccc2C(=O)N2CCOCC2)c(C)c1,inactive: -3.56%,
COc1ccc(NS(=O)(=O)c2cccc(C(=O)NCC3(N4CCOCC4)CCCCC3)c2)cc1,inactive: 1.07%,
CCCN(CCC)S(=O)(=O)c1ccc(C(=O)N2CCCc3ccccc32)cc1,,"inconclusive [inhibitor, full curve]"
COc1ccc(CCNC(=O)C(=O)NCC2OCCN2S(=O)(=O)c2ccc3c(c2)OCCO3)cc1 (stereo not drawn),,"inconclusive [inhibitor, partial curve]"
COc1ccc(C(=O)OCc2cc(C)ccc2C)cc1S(=O)(=O)N1CCCC1,,"inconclusive [inhibitor, full curve]"
C=CCc1cc2c(oc(=O)c3ccccc32)c(C)c1O,inactive: -27.6%,
NC(=O)CSc1ccc(Br)cc1,inactive: 3.88%,
Cc1ccc(C(=O)N/C(=C\C=C\c2ccccc2)C(=O)NCc2ccco2)cc1,,"inconclusive [inhibitor, single point]"
Cc1cnc(C=NNC(N)=S)c2cccc(N)c12,,"inconclusive [inhibitor, full curve]"
COc1ccc(-c2nc(-c3ccccc3)no2)c(OC)c1,,"inconclusive [inhibitor, single point]"
CNC(=O)CN(C)S(=O)(=O)c1ccc(OC)c(Cl)c1,,"inconclusive [inhibitor, partial curve]"
COc1ccc(N(C)S(=O)(=O)c2cccc(C(=O)NC3CCC(C)CC3)c2)cc1 (stereo not drawn),,"inconclusive [inhibitor, single point]"
COc1ccc(Cn2cccc(NC(=O)Nc3cccc(C#N)c3)c2=O)cc1,,"inconclusive [inhibitor, partial curve]"
CCOC(=O)c1ccc(NC(=S)N(CCN2CCCCCC2)Cc2cccs2)cc1,,"inconclusive [inhibitor, partial curve]"
Cc1ccc(C(=O)CCC(=O)NC2=NCCS2)cc1,,"inconclusive [inhibitor, single point]"
CCc1cc(=O)oc2cc(C)cc(OCC(=O)C(C)(C)C)c12,,"inconclusive [inhibitor, single point]"
NNc1ncnc2sc3c(c12)CCC3,,"inconclusive [inhibitor, single point]"
OCc1ccccc1CN1CCCCCC1,inactive: 5.14%,
CSc1cccc(NC(=O)c2sc3nc4n(c(=O)c3c2C)CCC4)c1,,"inconclusive [inhibitor, partial curve]"
CSc1ccccc1NC(=O)c1ccc([N+](=O)[O-])cc1,inactive: -15.1%,
CCn1c(=O)n(CC)c2cc(NC(=O)CSc3ccc([N+](=O)[O-])cn3)ccc21,,"inconclusive [inhibitor, single point]"
COc1ccc2nc(NCCCNC(=O)c3cc(OC)c(OC)c(OC)c3)c(C#N)cc2c1,,"inconclusive [inhibitor, full curve]"
CSc1cccc(N2CC(C(=O)Nc3ccccc3N3CCCC3)CC2=O)c1 (stereo not drawn),,"inconclusive [inhibitor, partial curve]"
Cc1cc2c(cc(C(=O)OCC(=O)NC3CCCCC3)n2C)o1,,"inconclusive [inhibitor, single point]"

SMILES,"activity change, negative = inhibition",Potency
COc1ccc(CCNC(=O)CCn2c(=O)[nH]c3cc(OC)c(OC)cc3c2=O)cc1OC,,inactive
COc1ccc(OC)c(-n2nnnc2SCC(=O)Nc2ccc3c(c2)OCCO3)c1,,"inconclusive [inhibitor, full curve]"
CC1CC(C)CN(C(=O)COC(=O)c2ccc3c(c2)OCCO3)C1 (stereo not drawn),inactive: 13.8%,
CCOC(=O)c1sc(NC(=O)c2cc(-c3ccc(C)cc3)nc3ccccc23)c(C#N)c1C,inactive: 12.3%,
CCn1c2ccccc2c2cc(CNCc3ccc(OC)cc3OC)ccc21,,active: 12.6 µM
O=C(COc1cccnc1[N+](=O)[O-])Nc1ccc2c(c1)CCC2,inactive: -16.4%,
CCc1ccccc1NC(=O)Cn1nnc(C(=O)NCc2cccc(OC)c2)c1N,inactive: -6.12%,
NCc1cc2c3c(c1)CCCN3CCC2,inactive: 6.18%,
CNCCC=C1c2ccccc2C=Cc2ccccc21,,"inconclusive [inhibitor, partial curve]"
C=CCC[C@@H](Cc1ccc(F)cc1)C(=O)OC[C@@H](NC(=O)[C@@H](CC=C)CC(=O)N(CCO)Cc1ccccc1)c1ccccc1,,"inconclusive [inhibitor, partial curve]"
CCN(Cc1cnn(C)c1)C(=O)c1cc(COc2ccc3c(c2)CCCC3)on1,,active: 22.4 µM
CC(=O)Nc1nnc(/C=C/c2cccc([N+](=O)[O-])c2)s1,inactive: 19.7%,
COC(=O)[C@@]12CCCN1[C@H](c1ccc(-c3ccccc3)c(OC)c1)[C@H]1C(=O)N(C)C(=O)[C@H]12,inactive: 0.728%,
O=C(O)CCC(=O)NNc1ccccc1[N+](=O)[O-],,"inconclusive [inhibitor, single point]"
N#C/C(=C(/O)COC(=O)COc1cccc(Br)c1)c1nc2ccccc2[nH]1,inactive: 0.895%,
Cc1ccc(Cn2ncc3c(N4CCN(c5ccccc5C)CC4)ncnc32)cc1,,"inconclusive [inhibitor, full curve]"
CSc1ncccc1C(=O)OC(C)C(=O)Nc1cccc(S(=O)(=O)N2CCOCC2)c1 (stereo not drawn),,"inconclusive [inhibitor, partial curve]"
O=C(N/N=C/C(Br)=C/c1ccccc1)c1cnccn1,inactive: -8.35%,
CCC(=O)c1cn(CC(=O)NCC2CCCO2)c2ccccc12 (stereo not drawn),inactive: 20.2%,
COc1ccccc1-c1c(C)[nH]n2c(=O)c(Cc3ccccc3)c(C)nc12,inactive: -23.4%,
Cc1c(N=Cc2cc(Br)cc(Br)c2O)cccc1C(=O)O,inactive: -6.62%,
NC(=O)c1nsc(C(=O)N(c2ccccc2F)C(C(=O)NCc2ccccc2)c2ccc(O)cc2)c1N (stereo not drawn),,"inconclusive [inhibitor, partial curve]"
COc1ccc(N(CC(=O)Nc2cc(Cl)ccc2OC)S(=O)(=O)c2c(C)noc2C)cc1,,"inconclusive [inhibitor, partial curve]"
